# Measurements as given in the antibiotic and cytotoxicity screens of Wong et al. (2023).
# The other results are listed elsewhere or left out.
# Legend:
# HSkMC = human skeletal muscle cells; test: cytotoxicity call (relative viability < 0.9); conditions: 10 µM
# HepG2 = test: cytotoxicity call (relative viability < 0.9); conditions: 10 µM
# S. aureus RN4220 = test: growth inhibition call (relative growth <= 0.2); conditions: 50 µM
SMILES,cytotoxicity call (HSkMC),cytotoxicity call (HepG2),growth inhibition call (S. aureus RN4220)
C[C@@H]1CN([C@H](C)CO)C(=O)Cc2cc(NC(=O)Nc3ccc(C(F)(F)F)cc3)ccc2O[C@H]1CN(C)S(C)(=O)=O,inactive,inactive,inactive
O=C(C[C@@H]1CC[C@@H]2[C@H](COC[C@@H](O)CN2S(=O)(=O)c2ccccc2Cl)O1)NCc1ccccc1Cl,inactive,inactive,inactive
C[C@@H]1CN([C@@H](C)CO)C(=O)c2cccc(NS(=O)(=O)c3cn(C)cn3)c2O[C@@H]1CN(C)C(=O)Nc1ccccc1,inactive,inactive,inactive
C[C@@H]1CCCCO[C@@H](CN(C)Cc2ccncc2)[C@H](C)CN([C@@H](C)CO)C(=O)c2cc(NC(=O)CCC(F)(F)F)ccc2O1,inactive,inactive,inactive
C[C@H](CO)N1C[C@H](C)[C@H](CN(C)S(C)(=O)=O)Oc2ccc(NC(=O)NC3CCCCC3)cc2CC1=O,inactive,inactive,inactive
C[C@H]1CN([C@@H](C)CO)C(=O)c2cc(NC(=O)Nc3ccc(C(F)(F)F)cc3)ccc2O[C@H]1CN(C)C(=O)Nc1cccc2ccccc12,inactive,inactive,inactive
C[C@@H]1CN([C@@H](C)CO)C(=O)Cc2cc(NC(=O)Cn3cnnn3)ccc2O[C@H]1CN(C)C(=O)Nc1ccc(C(F)(F)F)cc1,inactive,inactive,inactive
C[C@H]1CCCCO[C@@H](CN(C)Cc2ccccc2)[C@@H](C)CN([C@@H](C)CO)C(=O)c2cc(NC(=O)Cc3ccccc3)ccc2O1,inactive,inactive,inactive
COc1cc(C(=O)O[C@H]2CC[C@@]3(C)[C@@H]4CC[C@H]5[C@]6(O)C[C@H](O)[C@@]7(O)[C@@H](CN8C[C@@H](C)CC[C@H]8[C@@]7(C)O)[C@]6(O)C[C@@]53O[C@@]24O)cc(OC)c1OC,inactive,inactive,inactive
COC(=O)c1c(N)c(C#N)c2n1CCC2,inactive,inactive,inactive
C[C@H](CO)N1C[C@H](C)[C@@H](CN(C)C(=O)C2CCOCC2)Oc2cc(C3=CCCC3)ccc2S1(=O)=O,inactive,inactive,inactive
C[C@@H]1CCCCO[C@H](CN(C)C(=O)Nc2ccc(C(F)(F)F)cc2)[C@@H](C)CN([C@H](C)CO)C(=O)c2cc(NC(=O)c3ccncc3)ccc2O1,inactive,inactive,inactive
CNC[C@H]1OCCCC[C@H](C)Oc2ccc(NS(=O)(=O)c3c(C)noc3C)cc2C(=O)N([C@H](C)CO)C[C@H]1C,inactive,inactive,inactive
Cn1c(=O)c2c(nc(N3CCNCC3)n2CC(=O)c2ccc(Cl)cc2)n(C)c1=O,inactive,inactive,inactive
COc1ccc(NC(=O)N(C)C[C@H]2OCCCC[C@@H](C)Oc3ccc(NC(=O)c4ccccc4)cc3C(=O)N([C@H](C)CO)C[C@@H]2C)cc1,inactive,inactive,inactive
CCSC(=N)N,inactive,inactive,inactive
CNC(=O)Cn1c(=O)c2c(N3CCN(C(=O)C4CC4)CC3)ccnc2n(C)c1=O,inactive,inactive,inactive
C[C@H](CO)N1C[C@H](C)[C@@H](CN(C)Cc2ccc(Cl)c(Cl)c2)OCCCC[C@H](C)Oc2ccc(NC(=O)Nc3ccccc3)cc2C1=O,inactive,active,inactive
C[C@@H]1CN([C@H](C)CO)S(=O)(=O)c2ccc(-c3cccnc3)cc2O[C@@H]1CN(C)CC1CCOCC1,inactive,inactive,inactive
Cc1cc(C(=O)Nc2cccc3c2O[C@H](CN(C)S(=O)(=O)c2ccc(Cl)cc2)[C@H](C)CN([C@@H](C)CO)C3=O)n(C)n1,inactive,inactive,inactive
COc1ccc2c(=O)cc(-c3ccccc3)oc2c1OC,inactive,inactive,inactive
Cc1noc(C)c1NC(=O)Nc1ccc2c(c1)C(=O)N([C@H](C)CO)C[C@H](C)[C@H](CN(C)S(=O)(=O)c1cccs1)OCCCC[C@@H](C)O2,inactive,inactive,inactive
CO[C@@H]1CN(C)C(=O)c2ccc(NC(=O)C3CC3)cc2OC[C@H](C)N(C(=O)CN2CCOCC2)C[C@@H]1C,inactive,inactive,inactive
C[C@@H]1CCCCO[C@@H](CN(C)CC2CCCCC2)[C@H](C)CN([C@@H](C)CO)C(=O)c2cc(NC(=O)Nc3ccc(F)cc3)ccc2O1,inactive,active,inactive
CN1C(=O)c2cc(NC(=O)c3cnccn3)ccc2OC[C@H]2O[C@@H](CC(=O)NCC3CCCCC3)CC[C@@H]21,inactive,inactive,inactive
C[C@H]1CN([C@@H](C)CO)C(=O)c2cc(NC(=O)CCC(F)(F)F)ccc2O[C@H]1CN(C)Cc1ccc(C(F)(F)F)cc1,inactive,inactive,inactive
C[C@@H]1CN([C@H](C)CO)C(=O)c2cccc(NC(=O)c3ccc(-c4nccs4)cc3)c2O[C@@H]1CN(C)Cc1ccc(C(=O)Nc2ccccc2N)cc1,inactive,active,inactive

SMILES,cytotoxicity call (HSkMC),cytotoxicity call (HepG2),growth inhibition call (S. aureus RN4220)
C[C@@H]1CN([C@H](C)CO)C(=O)c2cc(NC(=O)Nc3ccc4c(c3)OCO4)ccc2O[C@@H](C)CCCCO[C@H]1CN(C)S(=O)(=O)c1ccccc1,inactive,inactive,inactive
O=C(NO)c1cn(-c2ccc(C[C@H]3C(=O)O[C@@H](Cc4ccccc4)[C@H]4C=C(/C=C/C5CC5)CN43)cc2)nn1,inactive,inactive,inactive
CCO[C@@H]1OC(C(=O)N2CCN(Cc3ccc4c(c3)OCO4)CC2)=C[C@H](c2csc3ccccc23)[C@H]1CCCOC(=O)NCCCCCC(=O)NO,inactive,inactive,inactive
CCS(=O)(=O)N1C[C@]2(C1)CN([C@H](CO)c1[nH]c3cc(ccc3c12)OC)S(=O)(=O)c1cccc(c1)OC,inactive,inactive,inactive
COc1ccc(NC(=O)N(C)C[C@H]2OCCCC[C@H](C)Oc3ccc(NC(=O)c4ccccc4)cc3C(=O)N([C@H](C)CO)C[C@H]2C)cc1,inactive,inactive,inactive
C[C@@H]1CN([C@@H](C)CO)C(=O)Cc2cc(NC(=O)CCN3CCOCC3)ccc2O[C@@H]1CN(C)C(=O)NC1CCCCC1,inactive,inactive,inactive
CC(C)NC(=O)Nc1ccc2c(c1)CC(=O)N([C@@H](C)CO)C[C@@H](C)[C@H](CN(C)S(=O)(=O)c1ccc(F)cc1)O2,inactive,inactive,inactive
Nc1ncccc1-c1nc2ccc(-c3ccccc3)nc2n1-c1ccc(C2(N)CCC2)cc1,active,active,inactive
CC(C)NC(=O)Nc1ccc2c(c1)C(=O)N([C@@H](C)CO)C[C@@H](C)[C@@H](CN(C)C(=O)Nc1cccc3ccccc13)OCCCC[C@@H](C)O2,inactive,inactive,inactive
O=C(CN1CCOCC1)N[C@@H]1CC[C@@H](CCNS(=O)(=O)c2ccccc2F)O[C@@H]1CO,inactive,inactive,inactive
Cc1noc(C)c1NC(=O)Nc1ccc2c(c1)CC(=O)N([C@@H](C)CO)C[C@@H](C)[C@@H](CN(C)CC1CC1)O2,inactive,inactive,inactive
O=C(C[C@H]1CC[C@@H]2[C@H](COC[C@@H](O)CN2S(=O)(=O)c2cccc(Cl)c2)O1)N1CCOCC1,inactive,inactive,inactive
C[C@H](NC(=O)C[C@@H]1C=C[C@@H](NC(=O)CN2CCOCC2)[C@H](CO)O1)c1ccccc1,inactive,inactive,inactive
CN1CCN(C(=O)C[C@@H]2C=C[C@H](NS(=O)(=O)c3cccc(F)c3)[C@@H](CO)O2)CC1,inactive,inactive,inactive
CO[C@@H]1CN(C)C(=O)c2ccc(NC(=O)CN(C)C)cc2OC[C@@H](C)N(C(=O)C2CCCCC2)C[C@H]1C,inactive,inactive,inactive
C[C@@H]1CCCCO[C@@H](CN(C)Cc2ccc(Cl)c(Cl)c2)[C@H](C)CN([C@@H](C)CO)C(=O)c2cc(NS(=O)(=O)c3cn(C)cn3)ccc2O1,inactive,inactive,inactive
C[C@@H]1CN([C@H](C)CO)C(=O)Cc2cc(NS(=O)(=O)c3cn(C)cn3)ccc2O[C@@H]1CN(C)C,inactive,inactive,inactive
C[C@@H]1CCCCO[C@@H](CN(C)C(=O)C2CCCCC2)[C@H](C)CN([C@@H](C)CO)C(=O)c2cc(NC(=O)Nc3cccc4ccccc34)ccc2O1,inactive,inactive,inactive
Nc1ncnc2nc[nH]c12,inactive,inactive,inactive
CNC[C@H]1Oc2ccc(NS(=O)(=O)c3cn(C)cn3)cc2C(=O)N([C@H](C)CO)C[C@H]1C,inactive,inactive,inactive
C[C@H](CO)N1C[C@H](C)[C@@H](CN(C)S(=O)(=O)c2cn(C)cn2)Oc2c(NS(=O)(=O)c3cn(C)cn3)cccc2C1=O,inactive,inactive,inactive
COc1cccc(S(=O)(=O)N(C)C[C@@H]2Oc3ncc(C#CCN(C)C)cc3C(=O)N([C@H](C)CO)C[C@H]2C)c1,inactive,inactive,inactive
COc1ccc(CN(C)C[C@H]2OCCCC[C@@H](C)Oc3ccc(NS(=O)(=O)c4ccc(C)cc4)cc3C(=O)N([C@H](C)CO)C[C@@H]2C)cc1,inactive,inactive,inactive
C[C@H]1CCCCO[C@H](CN(C)C(=O)Nc2cccc3ccccc23)[C@@H](C)CN([C@@H](C)CO)C(=O)c2cc(NC(=O)Nc3ccc(F)cc3)ccc2O1,inactive,inactive,inactive
C[C@@H]1CN([C@@H](C)CO)C(=O)c2cc(NC(=O)C3CCCCC3)ccc2O[C@@H](C)CCCCO[C@H]1CN(C)Cc1ccc(C(=O)O)cc1,inactive,inactive,inactive
O=C(C[C@@H]1CC[C@@H]2[C@H](COC[C@H](O)CN2Cc2cccc(C(F)(F)F)c2)O1)NCCc1ccncc1,inactive,inactive,inactive
CC(=O)OCC(=O)C1(O)CCC2C3CCC4=CC(=O)C=CC4(C)C3(Cl)C(Cl)CC21C (configuration not stated),inactive,inactive,inactive
